About 60 (0.1%) of roughly 46,000 compounds were called active. About 3% were inconclusive and are not listed. Calls come from the whole dose curve; as a rule, active = well fitted inhibition curve with a large enough effect; inconclusive = small, poorly fitted or top-dose-only effect; inactive = no such curve, though single readings can be large or run the other way. Some of the results follow.
Assay: Primary qHTS assay for Inhibitors of ovarian cancer metastasis using an organotypic tumor microenvironment (TME) model.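 For activity change, negative = inhibition: plate controls were DMSO wells for no effect and tomatine positive control wells for full effect.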 Note: nearly all actives have a fitted effect of over 65% in size.
Settings: SKOV3ip1-GFP adhesion/invasion on 3D omental model, fluorescence; series mostly up to 45.8 µM; activity change, negative = inhibition: at the top concentration
In short: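 Adhesion/invasion was scored as fixed GFP-labeled SKOV3ip1 cell counts (488/509 nm), normalized to DMSO and tomatine controls. Cancer cells in serum-free medium, with four compound doses (0.36-46 umol/L), sat 2 hr at RT then 16 hr at 37 C on a 48 hr fibroblast/mesothelial/ECM culture.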

SMILES | outcome | activity change, negative = inhibition
COc1cc2nc(SCC(=O)Nc3cccc(C)c3)n3nc(-c4ccccc4)nc3c2cc1OC | inactive | –
COc1ccc(NC(=O)c2c(NC(=O)c3cccc(C)c3)sc3c2CCCC3)cc1 | – | inactive: 1.7%
COc1ccc(N2CCN(C(=O)c3nn(-c4ccc(C)cc4)c(=O)n(C)c3=O)CC2)cc1 | – | inactive: -1.8%
Cc1ccc(C)c(Nc2nnc(-c3ccc(C)c(S(=O)(=O)N4CCCCC4)c3)c3ccccc23)c1 | – | inactive: -1.28%
Cc1ccc(CSc2nc3c(c(=O)[nH]2)C(c2cccc(F)c2F)CC(=O)N3)cc1 (stereo unspecified) | – | inactive: 7.36%
CCOC(=O)c1cc(-c2ccc(OC)cc2)nn1Cc1ccccc1 | – | inactive: -1.54%
COc1ccc(NC(=O)c2sc3nc[nH]c(=O)c3c2C)cc1OC | – | inactive: 65.4%
Cc1ccc(OCC(=O)Nc2ccc3nc(SCC(=O)N(C)c4ccccc4)sc3c2)cc1 | – | inactive: -2.34%
Cn1nnnc1SCCNCc1ccccc1Cl | inactive | –
COc1cccc(CNC(=O)CN(C)S(=O)(=O)c2ccc3c(c2)c(=O)n(C)c(=O)n3C)c1 | inactive | –
CC(C)c1ccc(NC(=O)C(Cc2ccccc2)NS(=O)(=O)c2ccc3c(c2)CCC(=O)N3)cc1 (stereo unspecified) | inactive | –
COc1cc2ncc3c(-c4ccccc4)nn(-c4ccc(C)cc4)c3c2cc1OC | – | inactive: 1.97%
CCc1ccccc1Nc1nn2c(=O)c3ccc(C(=O)NCc4ccccc4Cl)cc3nc2s1 | – | inactive: -3.46%
COc1ccc(Cl)cc1NC(=O)Cn1cc(S(=O)(=O)Cc2cccc(Cl)c2)c2ccccc21 | inactive | –
N#C/C(=C\c1ccc(-c2ccc(C(=O)O)cc2)o1)c1nc2ccccc2[nH]1 | – | inactive: 2.63%
CC(=O)N1CCc2cc(Br)cc(S(=O)(=O)CCC(=O)NCCc3ccc(Cl)cc3)c21 | inactive | –
CN1CCc2c(sc3c2C(=O)NC(c2ccc(OC(=O)c4ccc(Cl)cc4)cc2)N3)C1 (stereo unspecified) | – | inactive: -20.7%
Cn1c(=O)oc2cc(S(=O)(=O)N3CCC(C(=O)N4CCN(c5cccc(Cl)c5)CC4)CC3)ccc21 | inactive | –
CCOc1ccc(CCNC(=O)c2ccc(CS(=O)Cc3ccc(Cl)cc3)o2)cc1 (stereo unspecified) | inactive | –
COc1ccc(CC(=O)NCCc2sc(-c3cccc(F)c3)nc2C)cc1 | – | inactive: -1.32%
CCCCOc1ccc(C(=O)N(Cc2nc(-c3ccc(Cl)cc3)no2)C(C)C)cc1 | – | inactive: -14.5%
CCCCNC(=O)c1sc2ncccc2c1-n1cccc1 | – | inactive: -6.06%
O=C(CCc1ccccc1)N1CCc2c([nH]c3ccccc23)C1c1ccc(F)cc1 (stereo unspecified) | inactive | –
O=C(Nc1ccc(S(=O)(=O)N(Cc2ccccc2)c2ccccc2)cc1)c1ccc(F)cc1 | – | inactive: -0.637%

SMILES | outcome | activity change, negative = inhibition
O=C(CCCn1c(=O)c2ccccc2n(Cc2cccc(F)c2)c1=O)NCc1ccccc1Cl | inactive | –
Cc1cccc(NS(=O)(=O)c2ccc3c(c2)CCCN3C(=O)C2CCC2)c1C | – | inactive: 1.58%
COc1ccc(NC(=O)CN(c2ccc(C)cc2)S(=O)(=O)c2cccs2)cc1 | inactive | –
COc1cc(CNc2ccc3[nH]c(=O)[nH]c3c2)cc(Cl)c1OCc1ccc(F)cc1 | – | inactive: -13%
Cc1nn(C(C)(C)C)c(OC(=O)c2c(F)cccc2F)c1Sc1ccccc1 | – | inactive: -0.627%
CCOC(=O)Cn1c(=O)n(-c2ccc(Cl)cc2)c2nc(-c3ccc(Cl)cc3)nc(C(N)=O)c21 | inactive | –
O=C(NCCCc1nc2ccccc2n1Cc1ccccc1F)c1ccco1 | – | inactive: 0.939%
COC(=O)C(CCSC)NC(=O)c1cc2c(n(-c3ccccc3)c1=O)CC(C)(C)CC2=O (stereo unspecified) | – | inactive: 23.8%
CN1C(=O)c2ccccc2Sc2ccc(NC(=O)c3ccc(C#N)cc3)cc21 | – | inactive: 4.36%
COc1ccc(-c2cc(C(=O)Nc3c(C)n(C)n(-c4ccccc4)c3=O)no2)cc1 | – | inactive: 6.78%
Cc1cc2oc(C(=O)Nc3c(C)n(C)n(-c4ccccc4)c3=O)cc(=O)c2cc1C | – | inactive: -1.87%
O=C(Cn1cc(S(=O)(=O)Cc2ccccc2F)c2ccccc21)NCc1ccccc1 | – | inactive: -5.32%
Cc1csc2nc(-c3cccc(NC(=O)c4c(F)cccc4F)c3)cn12 | – | inactive: 8.96%
COc1ccc(CCNc2nc3c(c(=O)n(C)c(=O)n3C)n2Cc2ccccc2Cl)cc1OC | inactive | –
Cc1cccc(C(=O)Nc2ccccc2OCc2cc(=O)n3c(C)csc3n2)c1 | inactive | –
O=C(Nc1ccc(C(=O)OCc2cc(=O)n3c4c(sc3n2)CCCC4)cc1)c1cccc(F)c1 | – | inactive: -0.409%
Cc1ccc2c(=O)cc(C(=O)Nc3nc4ccc(Cl)cc4s3)oc2c1 | – | inactive: -6.14%
COc1ccc(C(=O)OCc2cc(=O)n3nc(C4CC4)sc3n2)cc1OC | – | inactive: -1.32%
Cc1c(CC(=O)NCc2ccccc2Cl)c(=O)oc2cc(O)ccc12 | – | inactive: 0.581%
COc1cc(OC)cc(N2C(=O)CSC23C(=O)Nc2ccccc23)c1 (stereo unspecified) | – | inactive: 8.3%
O=C(NCCc1ccccc1)c1cc(-c2ccc(Cl)c(Cl)c2)on1 | – | inactive: -5.62%
CCOc1ccc(Nc2c3c(nc4nncn24)CCC3)cc1 | inactive | –
Cc1ccc2oc(C(=O)Nc3ccc(S(=O)(=O)Nc4nc(C)cc(C)n4)cc3)cc(=O)c2c1 | – | inactive: -11.5%
Cc1ccc2nc(CN3CCN(S(=O)(=O)c4ccc(F)cc4)CC3)oc2c1 | inactive | –

SMILES | outcome | activity change, negative = inhibition
Cc1ccc(NC(=O)CCn2cnc3onc(-c4ccc(F)cc4)c3c2=O)c(Br)c1 | – | inactive: 7.8%
CC(C)Oc1ccc(CNS(=O)(=O)c2ccc(-c3cc(C(F)(F)F)on3)s2)cc1 | – | inactive: 3.29%
CCOc1ccc(-c2nnc(SCC(=O)Nc3cccc(Cl)c3C)o2)cc1 | – | inactive: -7.82%
O=C(CSc1nc2sc3c(c2c(=O)[nH]1)CCCC3)Nc1ccccc1F | – | inactive: 4.73%
CCCNC(=O)CSc1cn(CC(=O)N2CCCCCC2)c2ccccc12 | inactive | –
COc1ccc(CCNC(=O)CCn2c(=O)c3ccccc3n(Cc3ccccc3C)c2=O)cc1OC | inactive | –
O=c1cc(O)c(Cl)c[nH]1 | – | inactive: -2.8%
COc1cccc(NC(=O)C2CCN(c3nnc(-n4c(C)ccc4C)s3)CC2)c1 | – | inactive: -0.0666%
Cc1ccc(CNC(=O)C2CCCN(Cc3nc(-c4cccc(C)c4)oc3C)C2)cc1 (stereo unspecified) | – | inactive: -21%
Cc1ccc(Cl)cc1N1CCN(C(=O)COCc2cc(-c3ccc4c(c3)OCO4)on2)CC1 | – | inactive: -8.43%
Cc1c(-c2nc(-c3ccc4c(c3)OCO4)no2)nnn1-c1cccc(C(F)(F)F)c1 | – | inactive: 5.32%
COc1ccc(-c2nc3ccccc3o2)cc1NC(=O)c1ccc(-c2cccc(Cl)c2C)o1 | inactive | –
Cc1cc2c(cc1S(=O)(=O)Nc1cccc(Cl)c1C)OCCN2C | – | inactive: -14.8%
CC1=C(C(=O)Nc2cccc(C(F)(F)F)c2)C2(CCN(C(C)C)CC2)OC1=O | inactive | –
CCN(CC)CCNC(=O)c1ccc2c(=O)n3nc(Nc4ccccc4)sc3nc2c1 | inactive | –
CCOc1cc(C2C(C(=O)OC)=C(C)NC3=C2C(=O)c2ccccc23)cc(Br)c1OCC (stereo unspecified) | – | inactive: -21%
COc1ccc(CNC(=O)CS(=O)(=O)c2cccc3nsnc23)cc1 | – | inactive: -4.3%
Cc1cc(C)c(NC(=O)Cc2ccc(-n3c(C)nc4cccnc43)cc2)c(C)c1 | – | inactive: -9.4%
CC1=C(C(=O)OC2CCCCCC2)C(c2ccc(Cl)cc2)CC(=O)N1 (stereo unspecified) | – | inactive: -9.54%
O=C(c1ccc([N+](=O)[O-])cc1)N1c2ncnn2C2(CCCCC2)[C@@H]2CCCC[C@@H]21 | – | inactive: 13.5%
COc1ccc(Cl)cc1C(=O)NCc1nc(-c2cccc(C)c2)no1 | – | inactive: -22.7%
Cc1ccc(OC(=O)CSc2nnc(-c3cccs3)o2)c(C)c1 | – | inactive: 29.8%
COc1ccc(Cn2c(CCC(=O)Nc3ccccc3OC)nc3cccnc32)cc1 | – | inactive: 4.43%
CC(=O)Nc1ccc(NC(=O)C2Cc3ccccc3N2C(=O)c2ccccc2)cc1 (stereo unspecified) | inactive | –

SMILES | outcome | activity change, negative = inhibition
Cc1ccc2nc(-c3ccco3)c(Nc3ccc4c(c3)OCCO4)n2c1 | – | inactive: -17.8%
O=C(CSc1cn(CCNC(=O)c2c(F)cccc2F)c2ccccc12)Nc1ccccc1F | inactive | –
COc1ccc2c(c1)c(=O)c(C(=O)c1ccc(Cl)cc1)cn2CC(=O)Nc1ccc2c(c1)OCCO2 | inactive | –
CC(C)OCCCn1c(=O)c2ccccc2n2c(-c3ccccc3F)nnc12 | – | inactive: 1.72%
COc1ccc(CNC(=O)c2ccc(-c3nc(CS(=O)c4ccc(C)cc4)c(C)o3)cc2)cc1 (stereo unspecified) | inactive | –
CCc1c(C)nc2nc(-c3ccccc3)nn2c1NCc1ccc(C)cc1 | – | inactive: 19.6%
COc1cccc2[nH]c(C(=O)NCc3ccc4c(c3)CCN4C(=O)c3ccc(F)cc3)cc12 | – | inactive: 5.75%
COc1ccc(Br)cc1CNC(=O)Cn1ncn2nc(-c3cccs3)cc2c1=O | – | inactive: 8.6%
Cc1oc(-c2ccccc2Cl)nc1CSc1nncn2c1cc1occc12 | inactive | –
COc1ccccc1N1CCN(C(=O)c2ccc3c(c2)CCN3S(=O)(=O)c2ccccc2)CC1 | – | inactive: -3.94%
Cc1ccc(-c2nnn3c2nc(NCc2ccc4c(c2)OCO4)c2ccccc23)cc1 | inactive | –
O=C(CCS(=O)(=O)c1cccc2nonc12)Nc1ccc(F)cc1F | – | inactive: 19.8%
Cc1ccc(CNC(=O)C(C)n2c(=O)cc(-c3ccccc3)c3c(C)nn(C)c32)cc1 (stereo unspecified) | – | inactive: 0.329%
CCCn1ccc2c(OCC(=O)Nc3ccc(OC)c(OC)c3)cccc2c1=O | – | inactive: 6.05%
O=C(CC(c1cccs1)N1Cc2ccccc2C1=O)Nc1cccc(F)c1 (stereo unspecified) | – | inactive: 3.23%
O=C(NCCc1ccc(F)cc1)C(=O)NCC(c1cccs1)S(=O)(=O)c1ccccc1 (stereo unspecified) | – | inactive: -7.77%
COc1ccccc1CNC(=O)c1ccc(CSc2nc3ccncc3n2Cc2cccc(F)c2)cc1 | – | inactive: 4.56%
O=C(NOC[C@H](O)CO)c1ccc(F)c(F)c1Nc1ccc(I)cc1F | – | inactive: 15.1%
COc1ccc2c(Sc3ccccc3)c(C(=O)NCc3cc(Br)ccc3OC)[nH]c2c1 | – | inactive: -5.07%
Cc1cccc(-c2nc(C)c(CCNC(=O)C(=O)Nc3ccc(C)c(C)c3)s2)c1 | – | inactive: -4.8%
CCOc1ccccc1CNc1nc2nc(C)c(CC(=O)OC)c(=O)n2[nH]1 | – | inactive: 4.28%
Cc1cccc(C(=O)Nc2ccc(S(=O)(=O)N3CCCCC3c3cccnc3)cc2)c1 (stereo unspecified) | – | inactive: -3.57%
Cc1ccc(-n2ncc3c(N4CCN(Cc5ccccc5)CC4)ncnc32)cc1 | inactive | –
COc1ccc(Cl)cc1S(=O)(=O)N1CCN(C(=O)c2cc(-c3ccc(Br)cc3)n[nH]2)CC1 | inactive | –

From PubChem BioAssay AID1963576 (National Center for Advancing Translational Sciences (NCATS), 2024)
